# From the RNAGym collection of RNA variant scans (doi:10.1093/nar/gkz1192)
# Read counts are not given, so values of variants with three or more changes are uncertain.
# B1: CPEB3 Ribozyme (parent)
# chain: UAACAGGGGGCCACAGCAGAAGCGUUCACGUCGCAGCCCCUGUCAGAUUCUGGUGAAUCUGCGAAUUCUGCUGUAUAUCUC
# Variants of: B1
# Experiment: self-cleavage, relative activity (ratio to wild type); higher = more cleavage; in vitro, sequencing
# Method in brief: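 After error-prone PCR and barcoding, CPEB3 ribozyme mutant libraries were transcribed with T7 RNA polymerase at 37°C for 5 hours, then given 15 min with DNase I before an EDTA stop, and they cleaved during both steps. Reverse transcription with template switching preceded Illumina sequencing. Relative activity divides a variant's cleaved/total read fraction by the unmutated ribozyme's. At least 5 reads were required per variant, and three batches were averaged.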
row,Variant,self-cleavage
1,UAUCAGGGGGCCACAGCAGAAGCACUCACGUCGCAGCCCCUGUCAGAUUCUGGUGAGUCUGCGAAUUCUGCUGUAUAUCUC [A3U G24A U25C A57G],0.1
2,UAUCAGGGGGCCACAGCAGAAGCGUUCACCUCGCAGCACCUGUCAGAUUCUGGAGAAUCUGCGAAUUCUGCUGUAUAUCUC [A3U G30C C38A U54A],0.28
3,UAUCAGGGGGCCACAGCAGAAGCGUUCACCUCGCAGCCCCCGUCAGAUUCUGGUGAAUCCGCGUAUUCUGCUUUAUAUCUC [A3U G30C U41C U60C A64U G73U],0.17
4,UAUCAGGGGGCCACAGCAGAAGCGUUCACUUCGCAGCCCCUGUCAGAUUCUGGCGGAUCUGCGGAUUCUGCUGUAUAUCUC [A3U G30U U54C A56G A64G],0.18
5,UAUCAGGGGGCCACAGCAGAAGCGUUCACGUCGCAACCCCUGUCAGAUUCUGGUGAAUCUGCGAAUUCUGCUGUAUGUCUC [A3U G36A A77G],0.35
6,UAUCAGGGGGCCACAGCAGAAGCGUUCACGUCGCAGCCCCUAUCAGAUUCUGGUGAAUCUGCGAAUCCUGCCGUGUAGCUC [A3U G42A U67C U72C A75G U78G],0.13
7,UAUCAGGGGGCCACAGCAGAAGCGUUCACGUCGCAGCCCCUGUCAGAUUCUGGUGAAUCUGCGAAUUCUACUGUGUAUCUC [A3U G70A A75G],0.29
8,UAUCAGGGGGCCACAGCAGAAGCGAUCGCGUCGCAGCCCCUGUCAGAUUCUGGUGAAUCUGCGAAUUCUGCUGUAUAUCUC [A3U U25A A28G],0.12
9,UAUCAGGGGGCCACAGCAGAAGCGAUCACGUCGCUGCCCCUGUCAGAUUCUGGUGUAUCUGUGAAUUCUGCUGUAUAUCUC [A3U U25A A35U A56U C62U],0.17
10,UAUCAGGGGGCCACAGCAGAAGCGAUCACGUCGCAGCCCCUGUCAGAUUCUGGUGAAUCUGCGUAUUCUGCAGUAUAUCUC [A3U U25A A64U U72A],0.1
11,UAUCAGGGGGCCACAGCAGAAGCGCUCGCGUCGCAGCCCCUGUCAGAUUCUGGUGAAUCUGCGGAUUCUGCUGUAUAUCUC [A3U U25C A28G A64G],0.65
12,UAUCAGGGGGCCACAGCAGAAGCGCUCACGUCGCAGCCCCUGUCAGAUUCUGGUGAAUCUGCGAAUUCUGCUGUAUAUUUC [A3U U25C C79U],0.56
13,UAUCAGGGGGCCACAGCAGAAGCGCUCACCUCGCAGCCCCCGUCAGAUUCUGGUGAAACCGCGAAUUCUGCUGUAUAUCUC [A3U U25C G30C U41C U58A U60C],0.17
14,UAUCAGGGGGCCACAGCAGAAGCGCUCACGUCGCAGCCCCUGACAGAUUCUGGUGACUCUGCGAAUUCUGCUGUAUAUCUC [A3U U25C U43A A57C],0.31
15,UAUCAGGGGGCCACAGCAGAAGCGCUCACGUCGCAGCCCCUGCCAGAUUCUGGUGAAUCUGCGAAUUCUGCUGUAUAUCUC [A3U U25C U43C],0.4
16,UAUCAGGGGGCCACAGCAGAAGCGGUCACGUCGCGGCCCCUGUCAGAUUCUGGUGAAUCUGCGAAUUCUGCUGUAUAUCUC [A3U U25G A35G],0.7
17,UAUCAGGGGGCCACAGCAGAAGCGUACACGUCGCAGCCCCUGACAGAUUCUGGUGAAUCUGCGAAUUCUGCUGUAUAUCUC [A3U U26A U43A],0.51

row,Variant,self-cleavage
1,UAUCAGGGGGCCACAGCAGAAGCGUACACGUCGCAGCCCCUGUCAGAUUCAGGUGAAUCUGCGAAUUCUGCUGUAUACCUC [A3U U26A U51A U78C],0.71
2,UAUCAGGGGGCCACAGCAGAAGCGUCCUCGUCGCAGCCCCUGUCAGAUUCUGGCGAAUCUGCGAAUUCUGCUGUAUAUCUC [A3U U26C A28U U54C],0.48
3,UAUCAGGGGGCCACAGCAGAAGCGUCCACGUCGCUGCCCCUGUCAGAUUCUGGUGAAUCUGCGAACCCUGCUGUAUAUCUC [A3U U26C A35U U66C U67C],0.18
4,UAUCAGGGGGCCACAGCAGAAGCGUCCACGUCGCAGCCCCUGCCAGAUUCUGGCGAAUCUGCGAAUUCUGCUGUAUAUCUC [A3U U26C U43C U54C],0.28
5,UAUCAGGGGGCCACAGCAGAAGCGUCCACGUCGCAGCCCCUGUCAGAUUCUGGUGAAUCUGCGAACUCUGCUGUAUAUCUC [A3U U26C U66C],0.36
6,UAUCAGGGGGCCACAGCAGAAGCGUUCACGCCGCAGCCCCUGUCAGGUUCAGGUGAAUCCGCGAAUUCUGCUGUAUAUCUC [A3U U31C A47G U51A U60C],0.16
7,UAUCAGGGGGCCACAGCAGAAGCGUUCACGCCGCAGCCCCUGUCAGAUUCUGGUGAAUGUGCGAAUUCUGCUCUAUAUCUC [A3U U31C C59G G73C],0.17
8,UAUCAGGGGGCCACAGCAGAAGCGUUCACGCCGCAGCCCCCGUCAGAUUCAGGUGAAUCUGCGAAUUCUGCUGUAUAUCUC [A3U U31C U41C U51A],0.9
9,UAUCAGGGGGCCACAGCAGAAGCGUUCACGCCGCAGCCCCUGUCAGAUUCUGGUGAAUCUGCGAAUUCUGCCGUAUAUUUC [A3U U31C U72C C79U],1.09
10,UAUCAGGGGGCCACAGCAGAAGCGUUCACGUCGCAGCCCCCGUCGGAUUCUGGUGAAUCUGCGAAUUCUGCUGUAUGUCUC [A3U U41C A45G A77G],1.02
11,UAUCAGGGGGCCACAGCAGAAGCGUUCACGUCGCAGCCCCCGUCAGAUUCUGGUGAAUCUGCGAAUUCUGCUAUAUAUCUC [A3U U41C G73A],1.24
12,UAUCAGGGGGCCACAGCAGAAGCGUUCACGUCGCAGCCCCUGCCAGAUCCUGGUGAAUCUGCGAAUUCUGCUGUAUAUCUC [A3U U43C U49C],0.33
13,UAUCAGGGGGCCACAGCAGAAGCGUUCACGUCGCAGCCCCUGUCAGAUCCUGGUGAAUCUGCGAAUUUUGCUGUAUACCUC [A3U U49C C68U U78C],0.26
14,UAUCAGGGGGCCACAGCAGAAGCGUUCACGUCGCAGCCCCUGUCAGAUUCAGGUGAAUCUGCGAGUUCUGCUGUAUAUCUC [A3U U51A A65G],0.69
15,UAUCAGGGGGCCACAGCAGAAGCGUUCACGUCGCAGCCCCUGUCAGAUUCCGGUGAAUCUGCGAAUUCUGCUGUAUACCAC [A3U U51C U78C U80A],0.86
16,UAUCAGGGGGCCACAGCAGAAGCGUUCACGUCGCAGCCCCUGUCAGAUUCUGGUGAAUCAGCGAAUUCUGCAGUAUAUCCC [A3U U60A U72A U80C],0.75
17,UAUCAGGGGGCCACAGCAGAAGCGUUCACGUCGCAGCCCCUGUCAGAUUCUGGUGAAUCCGCGAAUCCUGCUGUAUAUCUC [A3U U60C U67C],0.28
